This list was built around the results that the source calls inconclusive (neither active nor inactive); the mix of calls is not that of the screen. Where a call stands in place of a potency, no number is given. Potencies of inconclusive entries are doubtful fits and often do not repeat. Activity calls are given as the source filed them. The call rests on the fitted dose curve; in most records, active means well fitted cell-killing curve with a large enough effect; inconclusive means small, poorly fitted or top-dose-only effect; inactive means no such curve, though single readings can be large or run the other way.
assay: qHTS of pediatric cancer cell lines to identify multiple opportunities for drug repurposing: Primary screen for SJ-GBM2 cells (AID 1347091); conditions: SJ-GBM2 viability, CellTiter-Glo luminescence, 48 h; series mostly up to 46 µM
Procedure, shortened: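 Eight- or eleven-point concentration series, 48 h treatment at 37 degrees C in growth media; readout CellTiter-Glo luminescence. Potency and efficacy were taken from the concentration-response curves.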
Potency means the concentration at half of the fitted maximal effect; tags describe the fitted curve by direction and shape.

For O=C(NCC1CCOCC1)c1cnc(Nc2ccc(Cl)cc2Cl)nc1C(F)(F)F, which Potency is on record?
Its Potency is inconclusive: 18.7 µM [cytotoxic, partial curve].

For C=C1C[C@@H]2[C@H](CC[C@]3(C)C(=O)CC[C@@H]23)[C@@]2(C)C=CC(=O)C=C12, which Potency is on record?
The Potency was “inactive”.

Which Potency does the source give for O=C(O)c1ccc2[nH]cc(CCCCN3CC=C(c4ccccc4)CC3)c2c1 here?
Its Potency is “inactive”.

With CC(Cc1ccccc1)NCc1ccccc1Cl (stereo not given) as the compound, how does the Potency read?
The Potency was “inactive”.

For C[C@]12C/C(=C/O)C(=O)C[C@@H]1CC[C@@H]1[C@@H]2CC[C@@]2(C)[C@H]1CC[C@]2(C)O, which Potency is on record?
Its Potency is inconclusive: 13.3 µM [cytotoxic, partial curve].

assay: qHTS of pediatric cancer cell lines to identify multiple opportunities for drug repurposing: Primary screen for A673 cells (AID 1347092); conditions: A673 Ewing sarcoma viability, CellTiter-Glo ATP luminescence, 48 h; activity change, negative = cytotoxic: at 46 µM (top of the series) unless noted; further: nearly all actives have a fitted effect of over 45% in size
Procedure, shortened: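 Cells are plated, rested 5 h, dosed by pintool, incubated 48 h, then lysed with CellTiter-Glo and read by luminescence. DMSO is the neutral control; bortezomib at 2.3 uM final is the positive control.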

Which Potency does the source give for O=C(NCC1CCOCC1)c1cnc(Nc2ccc(Cl)cc2Cl)nc1C(F)(F)F here?
Its Potency is active: 18.7 µM.

Which Potency does the source give for CN(C)CCc1c[nH]c2cccc(O)c12 here?
Its Potency is inconclusive: 24.1 µM [cytotoxic, partial curve, poor fit].

For NCCc1ccc(O)cc1, which Potency is on record?
The Potency was “inactive”.

With O=C1C(I)=CC(=C(c2cc(I)c(O)c(I)c2)c2ccccc2C(=O)O)C=C1I as the compound, how does the activity change, negative = cytotoxic read?
The activity change, negative = cytotoxic was inconclusive: -55.2%.

With CCCN(CCC)CCc1c[nH]c2ccccc12 as the compound, how does the activity change, negative = cytotoxic read?
Its activity change, negative = cytotoxic is inconclusive: -39.4% [cytotoxic] [at 92.7 µM].

With CC(C)(N)Cc1ccccc1Cl as the compound, how does the Potency read?
Its Potency is “inactive”.

Which Potency does the source give for CCN(CC)CCc1c[nH]c2ccccc12 here?
The Potency was “inactive”.

For CN(C)CCc1ccc(O)cc1, which Potency is on record?
The Potency was “inactive”.

Which Potency does the source give for O=P1(N(CCCl)CCCl)NCCCO1 (stereo not given) here?
The Potency was “inactive”.

For COC(=O)C1=CCCN(C)C1, which Potency is on record?
The Potency was “inactive”.

With C[C@]12CC[C@H]3[C@@H](CCC4=CC(=O)CC[C@@]43C)[C@H]1CC[C@H]2O as the compound, how does the Potency read?
Its Potency is inconclusive: 14.8 µM [cytotoxic, partial curve].

Which Potency does the source give for CN[C@@H]1Cc2cccc3[nH]c(=O)n(c23)C1 here?
Its Potency is inconclusive: 23.5 µM [cytotoxic, single point].

With O=C1CCC[C@@H]2[C@H]3CCCN4CCC[C@@H](CN12)[C@@H]34 as the compound, how does the Potency read?
Its Potency is “inactive”.

With C=C1C[C@@H]2[C@H](CC[C@]3(C)C(=O)CC[C@@H]23)[C@@]2(C)C=CC(=O)C=C12 as the compound, how does the Potency read?
The Potency was inconclusive: 26.6 µM [cytotoxic, single point].

For COC(=O)[C@@H](N)CCCN/C(N)=N/[N+](=O)[O-], which Potency is on record?
Its Potency is “inactive”.

Which Potency does the source give for COC1CC(=C(c2cccs2)c2cccs2)C[N+](C)(C)C1 (stereo not given) here?
Its Potency is inconclusive: 21.1 µM [cytotoxic, single point].

For CN1CC[C@]23c4c5ccc(O)c4O[C@H]2[C@@H](O)C=C[C@H]3[C@H]1C5, which Potency is on record?
The Potency was inconclusive: 60.5 µM [cytotoxic, single point].

With CC(C)=CC1C(C(=O)OCN2C(=O)C3=C(CCCC3)C2=O)C1(C)C (stereo not given) as the compound, how does the Potency read?
The Potency was “inactive”.

With C=C1C[C@H]2[C@H]3CCC(=O)[C@@]3(C)CC[C@@H]2[C@@]2(C)C=CC(=O)C=C12 as the compound, how does the Potency read?
Its Potency is inconclusive: 29.6 µM [cytotoxic, single point].

Which Potency does the source give for O=C(O)c1ccc2[nH]cc(CCCCN3CC=C(c4ccccc4)CC3)c2c1 here?
Its Potency is “inactive”.

For CC(Cc1ccccc1)NCc1ccccc1Cl (stereo not given), which Potency is on record?
Its Potency is inconclusive: 33.5 µM [cytotoxic, partial curve, poor fit].

For CN(C)NC(=O)CCC(=O)O, which Potency is on record?
The Potency was “inactive”.

For NCC1(CC(=O)O)CCCCC1, which Potency is on record?
The Potency was “inactive”.

With O=C(O)c1cc(Oc2ccc(C(F)(F)F)cc2Cl)ccc1[N+](=O)[O-] as the compound, how does the Potency read?
The Potency was “inactive”.

With Cc1ncc2n1-c1ccc(Cl)cc1C(c1ccccc1F)=NC2 as the compound, how does the Potency read?
The Potency was “inactive”.

For CCCOC(=O)c1cncn1C(C)c1ccccc1 (stereo not given), which Potency is on record?
The Potency was “inactive”.

For CCOP(=O)(NC(C)C)Oc1ccc(SC)c(C)c1 (stereo not given), which Potency is on record?
Its Potency is “inactive”.

With Cc1ncc(CNC(=O)N(CCCl)N=O)c(N)n1 as the compound, how does the Potency read?
Its Potency is inconclusive: 21.1 µM [cytotoxic, single point].

Which Potency does the source give for O=C(O)c1ccc(=O)[nH]c1 here?
The Potency was “inactive”.

Which Potency does the source give for COc1ccc(CN2CCNCC2)c(OC)c1OC here?
Its Potency is “inactive”.

Which Potency does the source give for CC(C)[N+](C)(CCC(C(N)=O)(c1ccccc1)c1ccccc1)C(C)C here?
Its Potency is “inactive”.

Which Potency does the source give for C[C@]12CC[C@@H]3[C@@H](CCC4=CC(=O)CC[C@@H]43)[C@@H]1CC[C@@H]2OC(=O)CCc1ccccc1 here?
Its Potency is inconclusive: 18.7 µM [cytotoxic, partial curve, poor fit].

Which Potency does the source give for CCc1cc(OC)c(C[C@H](C)N)cc1OC here?
The Potency was inconclusive: 71.2 µM [cytotoxic, partial curve, poor fit].

With COc1cc(CCN)cc(OC)c1OC as the compound, how does the Potency read?
Its Potency is “inactive”.

Which Potency does the source give for CCCC(C)C1(CC)C(=O)N=C(S)NC1=O (stereo not given) here?
Its Potency is “inactive”.

Which Potency does the source give for CC[C@H]1C[C@@H]2C[C@H]3c4[nH]c5ccc(OC)cc5c4CCN(C2)[C@@H]13 here?
The Potency was inconclusive: 37.8 µM [cytotoxic, single point].

With COc1ccc(C(=O)c2c(C)n(CCN3CCOCC3)c3ccccc23)cc1 as the compound, how does the Potency read?
Its Potency is inconclusive: 33.5 µM [cytotoxic, single point].

With Clc1ccccc1N1CCNCC1 as the compound, how does the Potency read?
Its Potency is “inactive”.

For C[C@]12C/C(=C/O)C(=O)C[C@@H]1CC[C@@H]1[C@@H]2CC[C@@]2(C)[C@H]1CC[C@]2(C)O, which Potency is on record?
The Potency was inconclusive: 16.8 µM [cytotoxic, single point].

For NC(=O)c1cc([N+](=O)[O-])cc([N+](=O)[O-])c1, which Potency is on record?
Its Potency is “inactive”.

Reference: PubChem BioAssay (NCATS)
